In all, about 16,000 sequences were measured (“Z-score”: median about -0.37, highest 2% from about 3.1 on). The list shows a part of the results.
Each sequence was assayed on RBM10 RRM1-ZnF-RRM2 (GST-tagged construct) (assay: RNAcompete 7-mer binding Z-score; higher = stronger binding preference).
Protocol: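 RNAcompete: 20 pmol GST-tagged RBM10 RNA-binding constructs were incubated with a designed RNA pool of about 241,000 sequences up to 41 nt (1.5 nmol) on glutathione beads for 30 min at 4 °C and washed. Bound RNAs were identified by microarray hybridisation. Each RNA 7-mer is scored by a one-sided Z-score of its enrichment, computed over probes that contain the 7-mer within longer pool sequences.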

Sequence	RNAcompete 7-mer binding Z-score
UCUAAUU	-0.817
AUCAAUC	-0.362
CGCCAUC	-0.741
CUAUGUU	-0.606
CAAUACU	-0.559
AGUACCU	-0.519
CGGAAUU	0.501
CGUCUGU	-0.57
AGGACCU	-0.65
CGUUCAC	-0.61
AGGCACU	-0.271
CUCUGCC	-0.887
ACCCCUG	-0.785
UCUCCAU	-0.755
CAAGAAA	-0.125
UGGCGGG	3.19
GCAAGCA	-0.00148
CCCAAAU	-0.828
UGGCUAA	0.294
GUUAGGG	3.65
UACCGAU	-0.435
UCCCUAC	-0.879
UACAAAC	-0.402

Sequence	RNAcompete 7-mer binding Z-score
UCGACAC	-0.49
UCAAAAA	-0.584
GGGCCCC	0.301
UGGAUCA	0.705
CCUGGAU	-0.577
CUUAGCU	-0.832
GGCUUUC	-0.643
UACGUGG	1.24
GUUACUC	-0.581
UCUUAUG	-0.843
AUGUCCG	-0.69
CAGAGUU	-0.158
GCCCAGG	-0.0889
UGCGUAU	-0.413
AAUAUAG	0.0495
UAUUACA	-0.482
GAAAUCG	0.195
UGAUCCC	-0.541
AGAUGUG	0.829
GCGACUA	-0.231
CUGAGUA	-0.388
UAGAUAC	-0.369
GUAGCGA	0.818

Sequence	RNAcompete 7-mer binding Z-score
GAAGUUC	-0.457
CGCCCUG	-0.653
AAGUCCA	-0.34
CUAAUGG	0.13
AACACUC	-0.817
UAGGGCA	2.23
UCAGGCG	0.57
GCUCGGA	0.00216
GGGUCGG	2.52
CUCAGCG	-0.424
UGCGAAG	0.279
UUUCCCA	-0.748
UCGGUAG	0.556
UCUCUGC	-0.81
UGGCCUG	-0.322
UCCAUGC	-0.519
GUGACUC	-0.0925
GGUGUUA	0.989
CUUAGUA	-0.635
GCAAGAU	-0.114
UACCCUG	-0.621
ACCAUAU	-0.748
ACUUGGU	-0.267

Sequence	RNAcompete 7-mer binding Z-score
GCGUGGA	2.22
GCUGUAA	-0.453
GGGAUUA	2.72
GACAUGG	2.7
AUCGUAC	-0.435
UCGGUGA	0.479
CACAAUC	-0.799
AAGGGCU	1.39
AACAUCG	-0.355
AUAAACG	-0.136
GGGAUGU	2.88
CAAAGUG	0.366
CCCUCUC	-0.759
CAGCGGA	1.16
GAGGUUU	0.785
CGGCGAG	1.46
AGACAUA	-0.0561
AUUUUCC	-0.806
GGAUAUC	0.833
CGUCACA	-0.286
GGUACGC	0.902
ACUGGGG	1.58
CAGUCAU	-0.723

Sequence	RNAcompete 7-mer binding Z-score
UAGUACU	-0.278
UAGCAAU	-0.078
CUCGAUU	-0.839
GCAUCCA	-0.519
UCUUCGG	-0.657
GCUUUUG	-0.679
GCGUCUC	-0.661
AAGGUGU	2.26
GGCAUCG	0.487
UCGGAGC	0.0641
AGUGAAC	0.505
AUUUCGG	-0.256
UAGGACC	0.636
AGCCGAU	-0.5
GUAAUUG	0.29
AUCCGUC	-0.752
GGGUCUA	0.519
CGGCAGA	0.421
CGGCGAC	0.17
AAUGAAC	-0.231
GUUGUUU	-0.158
AUGCGGA	0.898
ACAUGAU	-0.282

Sequence	RNAcompete 7-mer binding Z-score
AGAUCAG	0.406
GACAAGA	0.253
UAACCUA	-0.734
AGAUGUA	0.213
ACUGAAU	-0.493
GCUAUUA	-0.435
AUUCACA	-0.683
GGAAUAA	1.23
AACUGAU	-0.384
AGUUGGA	1.85
GCAUGUC	-0.464
UAUCCUA	-0.821
UCCGAGC	-0.795
AGCUUGU	-0.803
CUCUGUA	-0.763
CAUGCAC	-0.595
CGAUUUG	-0.639
GUCAUGU	-0.103
AGAGACG	0.33
GUCCGGA	0.122
UGUAUCC	-0.562
GCUACUA	-0.555
CAGGCAC	0.151

Sequence	RNAcompete 7-mer binding Z-score
CAAUAAG	-0.0161
GACCCCG	-0.686
GUCCACG	-0.271
AAUCUGC	-0.916
GUGAAUC	0.283
GUUUUUU	-0.428
UCUGACU	-0.734
CCUGUCA	-0.81
UUGUCCU	-0.828
GGCAAUU	0.425
GUUGCCG	-0.216
CGACCCU	-0.635
GGCCACA	-0.0889
UAGGCUC	-0.289
UCUCCAC	-0.806
UGGAAUG	1.95
UAACAGG	1.14
AUGGUGG	3.33
AACAAAU	-0.227
GCGCCAC	-0.533
GAAACUU	-0.657
CGCAAUU	-0.679
GUUAAAA	0.0131

Sequence	RNAcompete 7-mer binding Z-score
CCUGAGG	-0.00877
CGUGUCG	-0.286
UCGGAGA	0.723
UUACUUA	-0.839
CAGCGUC	-0.508
CCAUGCC	-0.704
CUCAGCA	-0.606
UCAGAGC	-0.246
CGCGAGC	-0.42
AAGAGGA	1.99
AUAGUUG	0.111
UCCGCCG	-0.839
GAUGGUG	2.77
ACACUAA	-0.402
CCGUAUC	-0.876
UUUCUCC	-0.825
CAUACAA	-0.271
AAGUCAU	-0.497
ACCGUCG	-0.628
CAUUUCC	-0.89
CUUCCCA	-0.817
ACAUGCU	-0.602
